Data as given in paper PMC10668032.
Some of the results follow. At the low end of the ranking, values are background and their order means little.

What follows are sequences tested against SIX1-Q177R homeodomain (UniProt Q15475) (assay: universal protein binding microarray). Details: Universal all-10-mer PBM (8x60K, AMADID 030236), 300 nM GST-tagged protein, Alexa Fluor 488 anti-GST; buffer, salt, pH and temperature not stated; high values mean tight binding; most listed sequences are background and not binding sites; double strand, one strand shown.

| Sequence | binding signal |
| --- | --- |
| GGTGTGGA | 0.369 E-score |
| AGATTTCG | -0.246 E-score |
| AGTGCCTG | -0.255 E-score |
| CCTACCAA | -0.005 E-score |
| CGTAGCAG | -0.0211 E-score |
| GCCTCTCA | -0.149 E-score |
| ATACCGCA | 0.179 E-score |
| CTTGCGGC | -0.153 E-score |
| ATTCAGGA | -0.136 E-score |
| CCCATGCG | 0.0262 E-score |
| GAGGTGCC | 0.111 E-score |
| GACTACCC | 0.137 E-score |
| CATGCATG | -0.00523 E-score |
| CTTCAAGA | -0.0254 E-score |
| CGGGGGGC | 0.204 E-score |
| AAACTATT | -0.144 E-score |
| CTCGCCAA | -0.159 E-score |
| AGAATTCA | -0.282 E-score |
| ACACTTTA | 0.343 E-score |
| CGAATAAA | -0.139 E-score |
| AATATCGT | -0.0639 E-score |
| ACAGCCCG | -0.148 E-score |
| CATTGCCA | -0.223 E-score |
| CGGGGTGC | 0.219 E-score |
| CGAAAGCC | -0.0382 E-score |

| Sequence | binding signal |
| --- | --- |
| ACAGCGGA | 0.0505 E-score |
| CTGGGTCA | 0.0597 E-score |
| ACCGATAA | -0.0289 E-score |
| ACCGGACG | 0.0703 E-score |
| AACCTGTC | -0.163 E-score |
| CTGACGGC | -0.264 E-score |
| GTAGTCCA | 0.013 E-score |
| GAAAATAC | -0.0305 E-score |
| CACGTGGG | 0.16 E-score |
| ATTCCCGG | 0.0176 E-score |
| ATAAATGA | -0.204 E-score |
| TATACTAA | 0.0632 E-score |
| CACATTAA | 0.0375 E-score |
| CCACTCTA | 0.032 E-score |
| CCACAGTA | 0.0136 E-score |
| TAACCAAA | -0.125 E-score |
| CGGTACCA | -0.113 E-score |
| CAAGGATC | 0.0468 E-score |
| AGATGTCA | -0.0908 E-score |
| CATCGGAA | -0.264 E-score |
| CTATCTGA | -0.214 E-score |
| AATAGAAG | -0.211 E-score |
| CCCCCGGG | 0.195 E-score |
| ACGAAGAT | -0.156 E-score |
| ATACAGGG | -0.0967 E-score |

| Sequence | binding signal |
| --- | --- |
| AGCCTTAG | -0.184 E-score |
| CTGACGAC | -0.0223 E-score |
| AGTGCCCG | -0.0908 E-score |
| CGCGACGC | -0.0656 E-score |
| GCGGGATA | 0.0556 E-score |
| CATGGCAC | 0.13 E-score |
| GCATTAAA | -0.084 E-score |
| AAAATGGT | 0.0314 E-score |
| AAGCCACT | -0.184 E-score |
| CAAGAGAA | -0.101 E-score |
| ATGTCGCA | -0.0538 E-score |
| CGATCGAG | 0.00245 E-score |
| GCCACAGC | -0.0179 E-score |
| AGTCGGGC | 0.0596 E-score |
| CTACGCAC | 0.042 E-score |
| ACTCCGAT | 0.182 E-score |
| ACGTCAAT | -0.171 E-score |
| GGGAGCAC | 0.0751 E-score |
| ATTTCGGC | 0.00181 E-score |
| GCAGCCGA | -0.218 E-score |
| GTACTCGA | 0.19 E-score |
| AGCCTGTG | -0.056 E-score |
| GTGTTCCA | 0.361 E-score |
| GAGGCCGC | -0.169 E-score |
| AATTGTTG | -0.114 E-score |

| Sequence | binding signal |
| --- | --- |
| CCCCCCTC | 0.163 E-score |
| CCATAGGA | -0.065 E-score |
| ACATAGGC | -0.124 E-score |
| ACGTTACC | 0.0853 E-score |
| CTGTACGC | -0.0547 E-score |
| CTTTATAC | 0.104 E-score |
| ATGCTCTG | -0.167 E-score |
| CTGCCTAA | -0.102 E-score |
| CCTTTTTA | -0.00268 E-score |
| ACCAGACC | 0.12 E-score |
| ACCTCGAC | 0.084 E-score |
| CCTTCAAA | -0.187 E-score |
| CAAACGTG | -0.0446 E-score |
| CGCACAAA | -0.116 E-score |
| AATTGGGG | 0.17 E-score |
| CAGCGATC | -0.0427 E-score |
| ATACCTTG | 0.0936 E-score |
| CACAGACC | 0.0243 E-score |
| CAGCCCGG | -0.0357 E-score |
| CTTGGGGA | 0.158 E-score |
| CGATATTA | -0.0548 E-score |
| CGTTGTCA | -0.0756 E-score |
| ACCATGAC | 0.0864 E-score |
| AACTGTGC | -0.186 E-score |
| CTTATTCA | -0.165 E-score |

| Sequence | binding signal |
| --- | --- |
| CTCGTAAA | -0.0661 E-score |
| GGTCACAA | 0.0476 E-score |
| AATACCCT | 0.171 E-score |
| ATCACCAT | 0.0185 E-score |
| AATTGTCG | -0.07 E-score |
| AGCCTCCA | -0.277 E-score |
| CCAAAGAG | -0.0999 E-score |
| AGCCATAG | -0.0626 E-score |
| TCGGGAGA | 0.0327 E-score |
| TAGAATAA | 0.138 E-score |
| CCCAGAAC | 0.0368 E-score |
| GCACGTGA | -0.0782 E-score |
| CTGATAAG | -0.118 E-score |
| CCTGGGGC | 0.0284 E-score |
| ACATGGTC | -0.164 E-score |
| GTTGACAA | -0.0933 E-score |
| CCCCGTCA | 0.0279 E-score |
| CAGAGCAA | -0.131 E-score |
| ATGAGCGC | -0.2 E-score |
| ACTTATAG | 0.1 E-score |
| GCCTTTAC | 0.122 E-score |
| GCTGTCAA | -0.241 E-score |
| GAAACGTA | -0.0117 E-score |
| GGGGGGTA | 0.341 E-score |
| GTGCCAAC | 0.156 E-score |

| Sequence | binding signal |
| --- | --- |
| AGCGCAGG | -0.114 E-score |
| ATGAGGGG | 0.195 E-score |
| GAATGGTA | 0.0944 E-score |
| GCTGGCCC | -0.264 E-score |
| ACCATTCT | 0.0566 E-score |
| GACCCATA | -0.0706 E-score |
| AAAGGAGG | -0.208 E-score |
| AAGAAATA | -0.177 E-score |
| CTTTCAGA | 0.0106 E-score |
| AGTGAAAA | -0.121 E-score |
| GTGAACCA | 0.0698 E-score |
| ACAGGGGT | 0.266 E-score |
| AGTTGTTC | -0.0319 E-score |
| AACAAAAT | -0.283 E-score |
| GAAGTCCC | -0.283 E-score |
| CTAGAGCA | -0.0979 E-score |
| CTCCGGGC | -0.135 E-score |
| AGGATCTG | -0.0171 E-score |
| ACTGATGA | -0.104 E-score |
| ATCCGCCG | 0.131 E-score |
| GACGAGGA | -0.205 E-score |
| GGAGGCCA | -0.217 E-score |
| CGTCGCAG | -0.129 E-score |
| CCAACTCG | 0.0547 E-score |
| CCATTTCG | -0.22 E-score |

| Sequence | binding signal |
| --- | --- |
| CCTGGTAC | -0.0455 E-score |
| CCTCTCTA | -0.0673 E-score |
| TCATAGCA | -0.159 E-score |
| CATATCGC | -0.0732 E-score |
| AGTGGCAA | -0.199 E-score |
| TATATACA | 0.143 E-score |
| ACGATAAA | -0.0977 E-score |
| TAGTTCGA | -0.0736 E-score |
| GTATTAAC | 0.0594 E-score |
| CACAAGCC | 0.0532 E-score |
| AAACCGTG | 0.134 E-score |
| CCATATTA | 0.0121 E-score |
| ATAGCCTG | -0.087 E-score |
| CACGCGCA | 0.212 E-score |
| ACCTTACG | -0.0798 E-score |
| CGCATCTA | -0.0442 E-score |
| TAAAGTGA | -0.152 E-score |
| GCTCAGCA | -0.108 E-score |
| CTCGGACC | -0.0615 E-score |
| AGAACTTA | -0.0842 E-score |
| AATACAGT | -0.137 E-score |
| ATTTACTA | -0.0242 E-score |
| AGTTGTTA | -0.132 E-score |
| AAGACTAG | -0.221 E-score |
| CGATAAAA | -0.223 E-score |

| Sequence | binding signal |
| --- | --- |
| AGCGGCAT | -0.11 E-score |
| TGAAATCA | -0.211 E-score |
| CTAGAGAC | -0.136 E-score |
| CAGCTGTA | -0.304 E-score |
| AATGCACA | 0.0289 E-score |
| ACTCTGTC | -0.0918 E-score |
| GCGGCCCA | -0.057 E-score |
| ATGACCCG | 0.2 E-score |
| AATTTTAT | -0.264 E-score |
| AGAATATC | -0.16 E-score |
| AGAGAGGA | -0.0901 E-score |
| CAGACTGA | -0.25 E-score |
| TCGAGTAA | 0.0637 E-score |
| CCGAGACG | 0.0137 E-score |
| TGAATAAA | -0.0868 E-score |
| GGCAGAAA | -0.149 E-score |
| ATGGATCC | 0.133 E-score |
| CATTAGAC | -0.0185 E-score |
| CCCACAAA | -0.0323 E-score |
| TACATATA | -0.128 E-score |
| TCATTTAA | -0.129 E-score |
| CTCAAAAC | 0.0312 E-score |
| AAATCAAG | -0.146 E-score |
| GGCCACCC | -0.111 E-score |
| ATACGTCG | -0.145 E-score |

| Sequence | binding signal |
| --- | --- |
| CATGCAGC | -0.242 E-score |
| CAAATGAC | -0.0786 E-score |
| AAAGCCGC | -0.288 E-score |
| GCTAGGAA | -0.199 E-score |
| GTCGCTGA | -0.126 E-score |
| CGACGAAG | -0.0896 E-score |
| AATGACTC | 0.245 E-score |
| AGACGCTA | -0.234 E-score |
| CAAAGTCC | -0.0737 E-score |
| AAGCGCCC | -0.192 E-score |
| ATGTCTTA | -0.123 E-score |
| AGCGATTG | -0.221 E-score |
| AGACCTTA | 0.0211 E-score |
| AGGGGGCC | -0.189 E-score |
| CAGGAATC | 0.0764 E-score |
| AAAGGACG | -0.0117 E-score |
| GCAGGTTA | 0.125 E-score |
| ACATTTAC | -0.0498 E-score |
| GCCGAACA | 0.116 E-score |
